# Data as given in PubChem BioAssay (Tox21).
# Values joined by “and” are separate entries in the source; they are usually repeats but may differ in a detail not shown here. Identical values can stand only once. Inconclusive results, whose numbers are uncertain, are shown with a selection of clear calls. For part of these data: A potency beside an inconclusive call is a rough fit, not a confirmed value. Active and inactive are the calls of the source. Unless noted, calls come from the whole dose curve; as a rule, active = well fitted curve in the direction sought with a large enough effect in the repeat runs; inconclusive = weak or mixed curves; inactive = no such curve, though single readings can be large; an effect the other way counts as inactive or inconclusive.
# How the values were obtained:
# [1] = qHTS assay to identify small molecule agonists of H2AX (AID 1224845; active = well fitted activation curve with a large enough effect in the signal ratio in the repeat runs, not every such curve was filed as active; inconclusive = weak or mixed curves; the % refers to the signal ratio; for activation (H2AX phosphorylation): % is set by controls: 0 for no effect and ±100 for the full control effect); conditions: CHO-K1 phospho-H2AX Ser139 HTRF, 3 h; activation (H2AX phosphorylation): at 154 µM (top of the series) unless noted
# Method in brief: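 Wild-type CHO-K1 cells, plated overnight, exposed 3hr at 37C to 15 concentrations (0.76% DMSO final). Lysed, then HTRF anti-pH2AX (S139) cryptate and anti-H2AX-d2 antibodies, 24 hr room temperature; 665/620 nm emission read.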
# [2] = qHTS assay to identify small molecule agonists of H2AX - cell viability counter screen (AID 1224847; calls by dose curve; note: nearly all actives have a fitted effect of over 30% in size)
# Method in brief: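 Compounds tested at 15 concentrations were incubated 3 hr at 37C with wild-type CHO-K1 cells; cellular ATP-based luminescence (CellTiter-Glo) indicated viability.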
# [3] = A CellTox Green Cytotoxicity Assay to monitor cytotoxicity in HEK293 cells - 40 hour (AID 1224871); note: nearly all actives have a fitted effect of over 45% in size
# Method in brief: (§1)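 Fluorescence from a DNA-binding dye excluded by viable cells was measured repeatedly in the same HEK293 wells (600 cells/well) during continuous compound exposure at 37 C. Each assay gives one read point: 0, 8, 16, 24, 32 or 40 h.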
# [4] = A CellTox Green Cytotoxicity Assay to monitor cytotoxicity in HepG2 cells - 24 hour (AID 1224878); note: nearly all actives have a fitted effect of over 45% in size; for Cytotoxicity: % is set by controls: 0 for no effect and ±100 for the full control effect
# Method in brief: (§2)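 Real-time cytotoxicity: fluorescence of a cell-impermeant cyanine dye binding DNA of dead HepG2 cells, measured repeatedly (0–40 h) during compound exposure at 37 C. Cells seeded 600/well with reagent, dosed after 5 h.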
# [5] = A CellTox Green Cytotoxicity Assay to monitor cytotoxicity in HEK293 cells - 32 hour (AID 1224881); note: nearly all actives have a fitted effect of over 40% in size
# Method in brief: as §1
# [6] = A CellTox Green Cytotoxicity Assay to monitor cytotoxicity in HepG2 cells - 16 hour (AID 1224876); note: nearly all actives have a fitted effect of over 45% in size
# Method in brief: as §2
# [7] = A CellTox Green Cytotoxicity Assay to monitor cytotoxicity in HepG2 cells - 40 hour (AID 1224879); note: nearly all actives have a fitted effect of over 40% in size
# Method in brief: as §2
# [8] = qHTS RealTime-Glo MT Cell Viability Assay in HEK293 cells - 0 hour (AID 1224880); note: nearly all actives have a fitted effect of over 45% in size
# Method in brief: (§3)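 Luminescence, which tracks viable cell number through reduction of the prosubstrate to a NanoLuc substrate, was read over continuous 37 C culture. Cells (600/well) were premixed with reagent and rested 5 h before 23 nL of compound in DMSO was pinned.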
# [9] = qHTS RealTime-Glo MT Cell Viability Assay in HepG2 cells - 24 hour (AID 1224867); note: nearly all actives have a fitted effect of over 50% in size
# Method in brief: (§4)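 Cells + NanoLuc/prosubstrate dispensed (600 cells/well) → 5 h at 37 C/5% CO2 → compounds in DMSO transferred → 40 h incubation at 37 C, luminescence read at 0, 8, 16, 24, 32, 40 h.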
# [10] = qHTS RealTime-Glo MT Cell Viability Assay in HEK293 cells - 32 hour (AID 1224868); note: nearly all actives have a fitted effect of over 50% in size
# Method in brief: (§5)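 Tox21 10K qHTS, HEK293, 600 cells/well, RealTime-Glo reagent co-dispensed with cells; 5 h preincubation, compound by pintool, 37 C, luminescence at 0–40 h.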
# [11] = qHTS RealTime-Glo MT Cell Viability Assay in HepG2 cells - 40 hour (AID 1224870); note: nearly all actives have a fitted effect of over 50% in size
# Method in brief: (§6)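 HepG2 cells (600/well) mixed with RealTime-Glo MT reagent, settled 5 h at 37 C/5% CO2 before compound addition. Nonlytic NanoLuc luminescence from viable-cell prosubstrate reduction read repeatedly during 40 h treatment at 37 C.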
# [12] = qHTS RealTime-Glo MT Cell Viability Assay in HEK293 cells - 16 hour (AID 1224872); note: nearly all actives have a fitted effect of over 50% in size
# Method in brief: as §5
# [13] = qHTS RealTime-Glo MT Cell Viability Assay in HEK293 cells - 40 hour (AID 1224874); conditions: RealTime-Glo luminescence; max response: stronger effect = lower value; note: nearly all actives have a fitted effect of over 50% in size
# Method in brief: as §3
# [14] = qHTS RealTime-Glo MT Cell Viability Assay in HepG2 cells - 8 hour (AID 1224873); note: nearly all actives have a fitted effect of over 55% in size
# Method in brief: as §6
# [15] = qHTS RealTime-Glo MT Cell Viability Assay in HepG2 cells - 32 hour (AID 1224877); note: nearly all actives have a fitted effect of over 55% in size
# Method in brief: as §4
# [16] = qHTS assay to identify small molecule antagonists of the estrogen related receptor (ERR) signaling pathway from Tox21 library (AID 1224848); note: nearly all actives have a fitted effect of over 50% in size
# Method in brief: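 Quantitative high-throughput format: ERR reporter cells (2,000/well) pre-incubated 6 h, treated 18 h at 37 C with compounds in DMSO alongside positive and negative controls, then read by ONE-Glo luminescence.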
# [17] = A CellTox Green Cytotoxicity Assay to monitor cytotoxicity in HEK293 cells - 24 hour (AID 1224875); note: nearly all actives have a fitted effect of over 45% in size
# Method in brief: as §1
# Potency is the fitted concentration of half-maximal effect; tags give direction and shape of the fitted curve or compound fluorescence and quenching.
compound,measurement,setting,value
O=CC(=O)c1ccccc1,activation (H2AX phosphorylation),[1],inconclusive: 10.9%
same,Potency,[2],"inconclusive: 101 µM [rising, single point]"
same,Potency,[3],"inconclusive: 61.7 µM [activator, single point]"
same,Potency,[4],inactive
same,Potency,[5],"inconclusive: 61.7 µM [activator, partial curve, poor fit]"
O=c1c(O)c(-c2ccc(O)cc2O)oc2cc(O)cc(O)c12,Potency,[1],"inconclusive: 30 µM [cytotoxic, partial curve]"
same,Potency,[2],"inconclusive: 84.5 µM [rising, partial curve, poor fit]"
same,Potency,[3],inactive
same,Potency,[6],"inconclusive: 20.6 µM [activator, single point]"
same,Potency,[4],"inconclusive: 20.6 µM [activator, single point]"
same,Potency,[7],"inconclusive: 20.6 µM [activator, single point]"
same,Potency,[8],inactive
Cc1c(C2(c3cc(Br)c(O)c(Br)c3C)OS(=O)(=O)c3ccccc32)cc(Br)c(O)c1Br,Potency,[1],"inconclusive: 5.5 µM [cytotoxic, full curve]"
same,Potency,[2],active: 9.77 µM
same,Potency,[8],active: 15 µM
CC(CN(CCN(CC(C)OCCO)CC(C)OCCO)CC(C)OCCO)OCCO (configuration not stated),Potency,[1],inactive
same,Potency,[2],"inconclusive: 48.6 µM [cytotoxic, single point]"
same,Potency,[9],"inconclusive: 42.1 µM [falling, partial curve, poor fit]"
same,Potency,[3],"inconclusive: 59.4 µM [activator, single point]"
same,Potency,[4],"inconclusive: 53 µM [activator, partial curve, poor fit]"
same,Potency,[5],"inconclusive: 59.4 µM [activator, single point]"
Cc1ccc(N/N=c2\c(=O)cc/c(=N\Nc3ccc(S(=O)(=O)O)cc3)c2=O)c(C)c1,Potency,[1],"inconclusive: 50.5 µM [cytotoxic, partial curve]"
same,Potency,[2],"inconclusive: 63.5 µM [cytotoxic, partial curve, poor fit]"
same,Potency,[10],inactive
O=C(/C=C/C=C/c1ccc2c(c1)OCO2)N1CCCCC1,Potency,[1],"inconclusive: 90 µM [cytotoxic, partial curve] and inconclusive: 113 µM"
same,Potency,[2],"inconclusive: 113 µM [cytotoxic, partial curve]"
same,Potency,[10],"active: 55.1 µM and inconclusive: 21.9 µM [cytotoxic, partial curve]"
same,Potency,[11],inactive
same,Potency,[12],"inconclusive: 55.1 µM [cytotoxic, single point] and inconclusive: 21.9 µM [cytotoxic, partial curve, poor fit]"
same,Potency,[13],"inconclusive: 21.9 µM [cytotoxic, partial curve]"
same,Potency,[4],"inconclusive: 54.9 µM [activator, single point]"
same,Potency,[7],"inconclusive: 55.1 µM [activator, single point] and inconclusive: 54.9 µM [activator, single point]"
CC1=C(Br)C(=O)C(Br)=C/C1=C(/c1ccccc1S(=O)(=O)O)c1cc(Br)c(O)c(Br)c1C,Potency,[1],"inconclusive: 5.44 µM [cytotoxic, full curve]"
same,Potency,[2],active: 21.7 µM
same,Potency,[8],active: 33.3 µM
CC(=O)[C@]1(O)Cc2c(O)c3c(c(O)c2[C@@H](O[C@H]2C[C@H](N)[C@H](O)[C@H](C)O2)C1)C(=O)c1ccccc1C3=O,Potency,[1],inconclusive: 3.48 µM
same,Potency,[2],inactive
same,Potency,[10],active: 75.6 nM
same,Potency,[11],"inconclusive: 0.379 µM [falling, full curve, poor fit]"
same,Potency,[12],active: 535 nM
same,Potency,[14],"inconclusive: 23.9 µM [falling, partial curve]"
same,Potency,[15],"inconclusive: 0.425 µM [cytotoxic, full curve, poor fit]"
same,Potency,[7],"inconclusive: 26.8 µM [activator, partial curve, poor fit]"
c1ccc(-c2ccccn2)nc1,Potency,[1],inconclusive: 113 µM [activator]
same,Potency,[16],"inconclusive: 68.6 µM [inhibitor, single point]"
CC(C(O)c1ccccc1)N(C)CCOC(c1ccccc1)c1ccccc1 (configuration not stated),activation (H2AX phosphorylation),[1],inconclusive: 9.92% [at 70.9 µM]
same,Potency,[2],"inconclusive: 55.2 µM [cytotoxic, single point]"
same,Potency,[9],"inconclusive: 26.8 µM [falling, single point]"
same,Potency,[11],"inconclusive: 26.8 µM [falling, single point]"
same,Potency,[3],active: 26.8 µM
same,Potency,[14],"inconclusive: 26.8 µM [falling, partial curve, poor fit]"
same,Potency,[13],active: 23.9 µM
same,Potency,[17],"inconclusive: 26.8 µM [activator, single point]"
same,Potency,[15],"inconclusive: 26.8 µM [cytotoxic, single point]"
CCN(Cc1cccc(S(=O)(=O)O)c1)c1ccc(C(=C2C=CC(=[N+](CC)Cc3cccc(S(=O)(=O)O)c3)C=C2)c2ccc(O)cc2S(=O)(=O)[O-])cc1,Potency,[1],"inconclusive: 3.44 µM [cytotoxic, full curve]"
same,Potency,[2],active: 19.4 µM
same,Potency,[12],inactive
